Results are given in words; binding and its absence hold for the method and conditions named. In cells and extracts the contact can be indirect. Some entries that bind do so weakly or less than the wild type.

The chains behind the UniProt entries cited, without tags or fusion partners. Where a name states a change or a piece, a line headed by the entry shows the natural chain unless it says otherwise.
UniProt Q14686: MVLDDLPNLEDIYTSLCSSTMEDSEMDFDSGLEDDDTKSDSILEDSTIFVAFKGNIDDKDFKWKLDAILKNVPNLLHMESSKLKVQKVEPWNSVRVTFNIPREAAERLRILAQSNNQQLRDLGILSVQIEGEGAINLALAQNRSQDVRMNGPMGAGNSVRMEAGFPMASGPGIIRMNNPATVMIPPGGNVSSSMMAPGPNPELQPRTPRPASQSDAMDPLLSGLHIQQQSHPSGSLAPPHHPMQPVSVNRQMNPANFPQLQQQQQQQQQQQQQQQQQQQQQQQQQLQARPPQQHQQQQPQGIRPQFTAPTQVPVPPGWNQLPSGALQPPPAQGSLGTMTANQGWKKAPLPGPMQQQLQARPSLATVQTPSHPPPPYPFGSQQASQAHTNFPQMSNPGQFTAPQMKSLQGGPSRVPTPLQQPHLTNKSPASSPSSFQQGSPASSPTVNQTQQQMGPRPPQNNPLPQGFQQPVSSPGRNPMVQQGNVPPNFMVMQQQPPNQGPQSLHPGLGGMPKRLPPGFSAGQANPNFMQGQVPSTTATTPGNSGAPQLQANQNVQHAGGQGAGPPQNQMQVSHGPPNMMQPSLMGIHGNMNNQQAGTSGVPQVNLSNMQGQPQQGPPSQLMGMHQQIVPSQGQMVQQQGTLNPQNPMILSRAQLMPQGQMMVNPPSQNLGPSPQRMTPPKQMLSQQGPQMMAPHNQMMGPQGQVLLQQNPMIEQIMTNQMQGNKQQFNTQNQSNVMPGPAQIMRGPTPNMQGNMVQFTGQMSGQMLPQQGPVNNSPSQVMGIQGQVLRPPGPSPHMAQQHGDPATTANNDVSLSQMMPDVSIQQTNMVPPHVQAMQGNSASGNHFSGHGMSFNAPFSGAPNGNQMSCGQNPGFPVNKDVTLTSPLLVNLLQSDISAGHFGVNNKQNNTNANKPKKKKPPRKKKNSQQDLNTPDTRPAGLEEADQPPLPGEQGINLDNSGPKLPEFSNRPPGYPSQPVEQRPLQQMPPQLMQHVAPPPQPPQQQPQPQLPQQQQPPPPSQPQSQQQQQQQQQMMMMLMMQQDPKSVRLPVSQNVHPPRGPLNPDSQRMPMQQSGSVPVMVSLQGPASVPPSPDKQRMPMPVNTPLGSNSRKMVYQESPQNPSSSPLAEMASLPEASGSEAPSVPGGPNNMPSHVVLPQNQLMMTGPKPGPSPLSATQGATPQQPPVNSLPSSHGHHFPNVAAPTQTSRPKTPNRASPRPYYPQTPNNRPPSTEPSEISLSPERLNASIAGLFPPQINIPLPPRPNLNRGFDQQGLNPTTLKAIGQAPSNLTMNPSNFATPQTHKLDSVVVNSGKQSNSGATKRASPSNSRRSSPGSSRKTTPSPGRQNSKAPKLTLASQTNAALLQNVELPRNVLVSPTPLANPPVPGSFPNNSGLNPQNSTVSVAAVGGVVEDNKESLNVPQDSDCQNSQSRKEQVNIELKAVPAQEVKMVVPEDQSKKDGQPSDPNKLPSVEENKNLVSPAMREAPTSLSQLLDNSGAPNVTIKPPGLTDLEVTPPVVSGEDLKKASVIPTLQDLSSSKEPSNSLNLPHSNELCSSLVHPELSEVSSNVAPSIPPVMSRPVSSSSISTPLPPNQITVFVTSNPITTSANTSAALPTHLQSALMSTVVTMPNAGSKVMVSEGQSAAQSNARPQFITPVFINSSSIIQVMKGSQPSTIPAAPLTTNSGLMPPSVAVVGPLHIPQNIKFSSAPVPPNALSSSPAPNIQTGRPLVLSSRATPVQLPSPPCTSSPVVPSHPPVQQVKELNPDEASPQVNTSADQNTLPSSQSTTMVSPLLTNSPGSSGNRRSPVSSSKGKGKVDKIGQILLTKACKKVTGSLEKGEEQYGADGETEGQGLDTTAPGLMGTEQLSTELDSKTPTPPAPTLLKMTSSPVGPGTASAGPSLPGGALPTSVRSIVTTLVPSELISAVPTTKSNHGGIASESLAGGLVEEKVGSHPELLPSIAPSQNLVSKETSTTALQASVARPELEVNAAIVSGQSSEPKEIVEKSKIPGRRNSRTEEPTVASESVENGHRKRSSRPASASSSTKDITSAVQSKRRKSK
UniProt Q96P20: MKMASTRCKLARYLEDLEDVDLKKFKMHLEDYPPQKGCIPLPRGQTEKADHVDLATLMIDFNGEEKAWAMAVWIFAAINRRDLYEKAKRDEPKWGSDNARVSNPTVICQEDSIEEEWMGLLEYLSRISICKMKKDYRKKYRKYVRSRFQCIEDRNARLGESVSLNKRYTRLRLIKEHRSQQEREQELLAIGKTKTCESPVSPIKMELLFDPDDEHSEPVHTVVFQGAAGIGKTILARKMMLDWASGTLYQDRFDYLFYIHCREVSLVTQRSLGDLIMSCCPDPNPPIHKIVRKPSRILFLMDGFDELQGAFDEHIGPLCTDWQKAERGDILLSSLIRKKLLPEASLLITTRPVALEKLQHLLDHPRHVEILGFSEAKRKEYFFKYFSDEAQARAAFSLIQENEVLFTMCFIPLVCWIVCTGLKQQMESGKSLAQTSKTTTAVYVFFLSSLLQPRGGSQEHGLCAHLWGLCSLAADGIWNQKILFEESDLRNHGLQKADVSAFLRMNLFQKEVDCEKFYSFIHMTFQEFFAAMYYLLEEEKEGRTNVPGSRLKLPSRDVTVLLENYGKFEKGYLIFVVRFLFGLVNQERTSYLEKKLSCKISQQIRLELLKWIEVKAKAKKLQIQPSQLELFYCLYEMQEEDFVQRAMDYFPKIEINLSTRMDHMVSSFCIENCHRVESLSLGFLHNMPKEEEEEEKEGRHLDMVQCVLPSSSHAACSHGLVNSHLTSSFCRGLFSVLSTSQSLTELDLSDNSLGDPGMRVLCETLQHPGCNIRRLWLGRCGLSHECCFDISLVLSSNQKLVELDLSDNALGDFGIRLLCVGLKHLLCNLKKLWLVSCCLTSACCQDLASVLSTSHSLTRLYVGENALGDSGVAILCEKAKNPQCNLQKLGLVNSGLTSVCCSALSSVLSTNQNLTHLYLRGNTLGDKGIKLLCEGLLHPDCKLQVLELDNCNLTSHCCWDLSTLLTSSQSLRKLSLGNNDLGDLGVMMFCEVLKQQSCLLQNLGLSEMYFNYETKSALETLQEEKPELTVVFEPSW
UniProt Q9ULZ3: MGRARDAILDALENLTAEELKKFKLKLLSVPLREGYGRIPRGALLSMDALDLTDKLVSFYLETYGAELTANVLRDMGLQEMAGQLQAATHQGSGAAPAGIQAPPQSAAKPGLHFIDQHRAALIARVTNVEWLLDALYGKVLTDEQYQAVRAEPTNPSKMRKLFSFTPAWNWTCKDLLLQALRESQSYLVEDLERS

The target in assay [1] is NCOA6 in HEK293T cells (precipitated with anti-NCOA6 Ab) (human (endogenous in HEK293T)) (UniProt Q14686). As to the kind of experiment: co-IP; HEK293T cells overexpressing FLAG-NLRP3 (wild type, single domains or Walker mutant) and/or Myc-ASC for 24 h; lysates precipitated with anti-NCOA6 Ab and Protein G agarose; immunoblot. (In western blotting, separated proteins are transferred to a membrane and probed.)

Assay [2] deals with NLRP3, endogenous in THP-1 cells (human (endogenous in THP-1)) (UniProt Q96P20). The assay can be described thus: proximity ligation; PMA-stimulated THP-1 cells primed with LPS (100 ng/ml, 4 h) then ATP (5 mM, 30 min), fixed; anti-NCOA6 and anti-NLRP3 antibodies, Duolink.
Assay [3] shares this target. The assay can be described thus: co-IP; PMA-differentiated THP-1 cells stimulated with ATP or LPS + ATP (also ATP with added extracellular KCl); lysates precipitated with anti-NLRP3 Ab and Protein G agarose, IP lysis buffer 20 mM Tris-Cl pH 7.5, 150 mM NaCl, 1% NP40; immunoblot.

For “FLAG-tagged NLRP3 full length (wild type) (from UniProt Q96P20 1-1036)”, in assay [1], the binding entry was “binds”. With “FLAG-tagged NLRP3 NACHT domain (from UniProt Q96P20 220-536) (domain or fragment)”, the binding result in assay [1] is given as “binds”. For the substance “Myc-tagged ASC (from UniProt Q9ULZ3 1-195)”, the binding entry in assay [1] is reported as “no binding”. Consider “Nuclear receptor coactivator 6 (NCOA6), endogenous in THP-1 cells (from UniProt Q14686 1-2063)”, for which the binding result in assay [2] and in assay [3] was “binds” throughout.

(Values after PMC10902316.)
